Test results published in US11420968B2 (priority 2018, dated 2022).
Like-named read-outs stand apart in the source and are kept apart here.

How the values were obtained:
[1] = system: RS4;11 cells; test: cells; settings: Homo sapiens
[2] = system: Molt-4 cells; test: cells; settings: Homo sapiens, MOLT-4, read-out: Cellular activity (IC50, nM) Molt-4
[3] = RS4-11, 48 h, read-out: Cellular activity (IC50, nM) RS4, 11
[4] = RS4-11, 48 h, read-out: Cellular activity (IC50, nM) RS4;11

Row | Compound | IC50 [1, 3] | IC50 [2] | IC50 [1, 4] | IC50 ([1]; RS4-11, read-out: Cellular activity (IC50, nM) RS4, 11)
1 | O=C(NS(=O)(=O)c1ccc(NCC2CCOCC2)c([N+](=O)[O-])c1)c1ccc(C2=CCN(C(=O)C3CCCN3c3ccccc3)CC2)cc1Oc1cnc2[nH]ccc2c1 (centres unmarked) [Example B8, 2-((1H-pyrrolo[2,3-b]pyridin-5-yl)oxy)-N-((3-nitro-4-(((tetrahydro-2H-pyran-4-yl)methyl)amino)phenyl)sulfonyl)-4-(1-(phenylprolyl)-1,2,3,6-tetrahydropyridin-4-yl)benzamide] | > 10000 nM | > 10000 nM | – | –
2 | COc1ccccc1C1CCCN1C1CCC(c2ccc(C(=O)NS(=O)(=O)c3ccc(NCC4CCOCC4)c([N+](=O)[O-])c3)c(Oc3cnc4[nH]ccc4c3)c2)CC1 (centres unmarked) [Example D103, 2-((1H-pyrrolo[2,3-b]pyridin-5-yl)oxy)-4-(4-(2-(2-methoxyphenyl)pyrrolidin-1-yl)cyclohexyl)-N-((3-nitro-4-(((tetrahydro-2H-pyran-4-yl)methyl)amino)phenyl)sulfonyl)benzamide] | 144 nM | > 10000 nM | – | –
3 | CN1CCC(n2nccc2C2CCCN2c2ccc(-c3ccc(C(=O)NS(=O)(=O)c4ccc(NCC5CCOCC5)c([N+](=O)[O-])c4)c(Oc4cnc5[nH]ccc5c4)c3)cc2)CC1 (centres unmarked) [Example A139, 3-((1H-pyrrolo[2,3-h]pyridin-5-yl)oxy)-4′-(2-(1-(1-methylpiperidin-4-yl)-1H-pyrazol-5-yl)pyrrolidin-1-yl)-N-((3-nitro-4-(((tetrahydro-2H-pyran-4-yl)methyl)amino)phenyl)sulfonyl)-[1,1′-biphenyl]-4-carboxamide] | – | > 10000 nM | 2320 nM | –
4 | O=C(NS(=O)(=O)c1ccc(NCC2CCOCC2)c([N+](=O)[O-])c1)c1ccc(C2=CCC(N3CCCC3c3ccccc3C3CCNCC3)CC2)cc1Oc1cnc2[nH]ccc2c1 (centres unmarked) [Example C66, 3-((1H-pyrrolo[2,3-b]pyridin-5-yl)oxy)-N-((3-nitro-4-(((tetrahydro-2H-pyran-4-yl)methyl)amino)phenyl)sulfonyl)-4′-(2-(2-(piperidin-4-yl)phenyl)pyrrolidin-1-yl)-2′,3′,4′,5′-tetrahydro-[1,1′-biphenyl]-4-carboxamide] | 3010 nM | > 10000 nM | – | –
5 | O=C(NS(=O)(=O)c1ccc(NCC2CCOCC2)c([N+](=O)[O-])c1)c1ccc([C@H]2CC[C@H](N3CC(N4CCCC4c4ccccc4C4CC4)C3)CC2)cc1Oc1cnc2[nH]ccc2c1 (relative stereo) [Example D107b, 2-((1H-pyrrolo[2,3-b]pyridin-5-yl)oxy)-4-(trans-4-(3-(2-(2-cyclopropylphenyl)pyrrolidin-1-yl)azetidin-1-yl)cyclohexyl)-N-((3-nitro-4-(((tetrahydro-2H-pyran-4-yl)methyl)amino)phenyl)sulfonyl)benzamide] | – | > 10000 nM | 187 nM | –
6 | CN(C)C1CC(c2ccccc2C2CC2)N(C2CC3(CCN(c4ccc(C(=O)NS(=O)(=O)c5ccc(NCC6CCOCC6)c([N+](=O)[O-])c5)c(Oc5cnc6[nH]ccc6c5)c4)CC3)C2)C1 (centres unmarked) [Example F85, 2-((1H-pyrrolo[2,3-b]pyridin-5-yl)oxy)-4-(2-(2-(2-cyclopropylphenyl)-4-(dimethylamino)pyrrolidin-1-yl)-7-azaspiro[3.5]nonan-7-yl)-N-((3-nitro-4-(((tetrahydro-2H-pyran-4-yl)methyl)amino)phenyl)sulfonyl)benzamide] | – | 3510 nM | 3.5 nM | –
7 | O=C(NS(=O)(=O)c1ccc(NCC2CCOCC2)c([N+](=O)[O-])c1)c1ccc(-c2ccc(N3CCC[C@@H]3c3ccccc3C3=CCN(Cc4ccccc4)CC3)cc2)cc1Oc1cnc2[nH]ccc2c1 [Example A108, (R)-3-((1H-pyrrolo[2,3-b]pyridin-5-yl)oxy)-4′-(2-(2-(1-benzyl-1,2,3,6-tetrahydropyridin-4-yl)phenyl)pyrrolidin-1-yl)-N-((3-nitro-4-(((tetrahydro-2H-pyran-4-yl)methyl)amino)phenyl)sulfonyl)-[1,1′-biphenyl]-4-carboxamide] | – | > 10000 nM | 32 nM | –
8 | O=C(NS(=O)(=O)c1ccc(NCC2CCOCC2)c([N+](=O)[O-])c1)c1ccc(-c2ccc(N3C[C@H](F)C[C@H]3c3ccccc3C3CC3)cc2)cc1Oc1cnc2[nH]ccc2c1 (single isomer, unassigned) [Example A145b, 3-((1H-pyrrolo[2,3-b]pyridin-5-yl)oxy)-4′-((2S,4R) or (2R,4S)-2-(2-cyclopropylphenyl)-4-fluoropyrrolidin-1-yl)-N-((3-nitro-4-(((tetrahydro-2H-pyran-4-yl)methyl)amino)phenyl)sulfonyl)-[1,1′-biphenyl]-4-carboxamide] | – | 3490 nM | 36 nM | –
9 | O=C(NS(=O)(=O)c1ccc(NCC2CCOCC2)c([N+](=O)[O-])c1)c1ccc(-c2ccc(N3CCCC3c3ccccc3C3CCOCC3)cc2)cc1Oc1cnc2[nH]ccc2c1 (centres unmarked) [Example A90, 3-((1H-pyrrolo[2,3-b]pyridin-5-yl)oxy)-N-((3-nitro-4-(((tetrahydro-2H-pyran-4-yl)methyl)amino)phenyl)sulfonyl)-4′-(2-(2-(tetrahydro-2H-pyran-4-yl)phenyl)pyrrolidin-1-yl)-[1,1′-biphenyl]-4-carboxamide] | – | 5600 nM | 71 nM | –
10 | O=C(NS(=O)(=O)c1ccc(NCC2CN(C3CC3)CCO2)c([N+](=O)[O-])c1)c1ccc(C2=CCC(N3CCCC3c3ccccc3C3CC3)CC2)cc1Oc1cnc2[nH]ccc2c1 (centres unmarked) [Example G16, 3-((1H-pyrrolo[2,3-b]pyridin-5-yl)oxy)-N-((4-(((4-cyclopropylmorpholin-2-yl)methyl)amino)-3-nitrophenyl)sulfonyl)-4′-(2-(2-cyclopropylphenyl)pyrrolidin-1-yl)-2′,3′,4′,5′-tetrahydro-[1,1′-biphenyl]-4-carboxamide] | 280 nM | > 10000 nM | – | –
11 | O=C(NS(=O)(=O)c1ccc(NCC2CCOCC2)c([N+](=O)[O-])c1)c1ccc(C2=CCC(N3CC(F)(F)CC3c3ccccc3C3CC3)CC2)cc1Oc1cnc2[nH]ccc2c1 (centres unmarked) [Example C90, 3-((1H-pyrrolo[2,3-b]pyridin-5-yl)oxy)-4′-(2-(2-cyclopropylphenyl)-4,4-difluoropyrrolidin-1-yl)-N-((3-nitro-4-(((tetrahydro-2H-pyran-4-yl)methyl)amino)phenyl)sulfonyl)-2′,3′,4′,5′-tetrahydro-[1,1′-biphenyl]-4-carboxamide] | 291 nM | 1470 nM | – | –
12 | NC(=O)C1CCC(c2ccccc2[C@H]2CCCN2c2ccc(-c3ccc(C(=O)NS(=O)(=O)c4ccc(NCC5CCOCC5)c([N+](=O)[O-])c4)c(Oc4cnc5[nH]ccc5c4)c3)cc2)CC1 (stereo partly drawn) [Example A115, (R)-3-((1H-pyrrolo[2,3-b]pyridin-5-yl)oxy)-4′-(2-(2-(4-carbamoylcyclohexyl)phenyl)pyrrolidin-1-yl)-N-((3-nitro-4-(((tetrahydro-2H-pyran-4-yl)methyl)amino)phenyl)sulfonyl)-[1,1′-biphenyl]-4-carboxamide] | – | 3840 nM | 22 nM | –
13 | CN(C)CC1CCCN1c1ccccc1C1CCCN1c1ccc(-c2ccc(C(=O)NS(=O)(=O)c3ccc(NCC4CCOCC4)c([N+](=O)[O-])c3)c(Oc3cnc4[nH]ccc4c3)c2)cc1 (centres unmarked) [Example A137, 3-((1H-pyrrolo[2,3-b]pyridin-5-yl)oxy)-4′-(2-(2-(2-((dimethylamino)methyl)pyrrolidin-1-yl)phenyl)pyrrolidin-1-yl)-N-((3-nitro-4-(((tetrahydro-2H-pyran-4-yl)methyl)amino)phenyl)sulfonyl)-[1,1′-biphenyl]-4-carboxamide] | – | 3540 nM | 10 nM | –
14 | N#CC1CCN(C2CC=C(c3ccc(C(=O)NS(=O)(=O)c4ccc(NCC5CCOCC5)c([N+](=O)[O-])c4)c(Oc4cnc5[nH]ccc5c4)c3)CC2)C1c1ccccc1C1CC1 (centres unmarked) [Example C163, 3-((1H-pyrrolo[2,3-b]pyridin-5-yl)oxy)-4′-(3-cyano-2-(2-cyclopropylphenyl)pyrrolidin-1-yl)-N-((3-nitro-4-(((tetrahydro-2H-pyran-4-yl)methyl)amino)phenyl)sulfonyl)-2′,3′,4′,5′-tetrahydro-[1,1′-biphenyl]-4-carboxamide] | 171 nM | 9050 nM | – | –
15 | CN(C)CCN(C)c1ccc(C2CC2)c(C2CCCN2C2CC=C(c3ccc(C(=O)NS(=O)(=O)c4ccc(NCC5CCOCC5)c([N+](=O)[O-])c4)c(Oc4cnc5[nH]ccc5c4)c3)CC2)c1 (centres unmarked) [Example C171, 3-((1H-pyrrolo[2,3-b]pyridin-5-yl)oxy)-4′-(2-(2-cyclopropyl-5-((2-(dimethylamino)ethyl)(methyl)amino)phenyl)pyrrolidin-1-yl)-N-((3-nitro-4-(((tetrahydro-2H-pyran-4-yl)methyl)amino)phenyl)sulfonyl)-2′,3′,4′,5′-tetrahydro-[1,1′-biphenyl]-4-carboxamide] | 492 nM | > 10000 nM | – | –
16 | CN1CC=C(c2ccccc2[C@H]2CCCN2c2ccc(-c3ccc(C(=O)NS(=O)(=O)c4ccc(NCC5CCOCC5)c([N+](=O)[O-])c4)c(Oc4cnc5[nH]ccc5c4)c3)cc2)CC1 [Example A68-R, (R)-3-((1H-pyrrolo[2,3-b]pyridin-5-yl)oxy)-4′-(2-(2-(1-methyl-1,2,3,6-tetrahydropyridin-4-yl)phenyl)pyrrolidin-1-yl)-N-((3-nitro-4-(((tetrahydro-2H-pyran-4-yl)methyl)amino)phenyl)sulfonyl)-[1,1′-biphenyl]-4-carboxamide] | – | 5240 nM | 10 nM | –
17 | O=C(NS(=O)(=O)c1ccc(NCC2CCOCC2)c([N+](=O)[O-])c1)c1ccc(N2CCC3(CC2)CC(N2CCCC2c2cccc(C4CC4)c2)C3)cc1Oc1cnc2[nH]ccc2c1 (centres unmarked) [Example F53, 2-((1H-pyrrolo[2,3-b]pyridin-5-yl)oxy)-4-(2-(2-(3-cyclopropylphenyl)pyrrolidin-1-yl)-7-azaspiro[3.5]nonan-7-yl)-N-((3-nitro-4-(((tetrahydro-2H-pyran-4-yl)methyl)amino)phenyl)sulfonyl)benzamide] | – | > 10000 nM | 100 nM | 100 nM
